# Measurements taken from the supplement of paper PMC4466236.
# In all, about 33,000 sequences were measured (“E-score (dimensionless, -0.5 to 0.5)”: median about -0.058, highest 2% from about 0.35 on). Some of the results follow.
# Test system: MvaT
# Assay: PBM 8-mer E-score (mean of HK and ME arrays) (E-score (dimensionless, -0.5 to 0.5)); higher = stronger relative binding preference; most listed sequences are background and not binding sites
# In short: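 Reported values are rank-based E-scores, taken as the mean of two universal arrays and parsed with a custom script. Each 8-mer score falls between -0.5 and 0.5. The arrays, ME and HK, were double-stranded 60-mers with a constant 25-mer primer region and a variable 35-mer region covering all 8-mers. They were probed, by an earlier protocol, with full-length P. aeruginosa MvaT carrying an N-terminal glutathione S-transferase fusion.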
row,Sequence,PBM 8-mer E-score
1,ACGGTTAC,-0.0438
2,CGTAAACG,-0.0778
3,CTTGGGAC,-0.104
4,ATGATATA,0.262
5,CTACTCCC,-0.00922
6,AGGTGTAT,0.0535
7,ATCGAGTG,-0.14
8,ACTTGCCG,-0.00427
9,GGAGCACC,-0.296
10,AAGCTGAA,-0.0988
11,ATCAGGAC,0.0315
12,AGGTTTCG,-0.156
13,AGTATGGC,0.00878
14,CTGACAAC,-0.0243
15,AAGGTGCC,-0.22
16,ATCGCCGC,-0.0467
17,GTCCGCGA,-0.0617
18,CGACCACG,-0.21
19,CTGCAGCC,-0.148
20,GTTGATAA,0.233
21,GGCCTCCA,-0.237
22,ACGGCTTC,-0.205
23,GAGAATGA,-0.0578
24,AATGCGCC,-0.0448
25,CCATTTTA,-0.0521

row,Sequence,PBM 8-mer E-score
1,GGAAGGCA,-0.221
2,CGTGGCCA,-0.293
3,ATAGTAGC,0.154
4,AACTTTCT,0.22
5,ATTTCTCC,0.0744
6,GGACGGCA,-0.204
7,CGGATCGC,-0.251
8,GTGTGACA,0.000184
9,CGATGACA,-0.000569
10,CTGGCGGA,-0.167
11,AGGATGTC,-0.16
12,GAAACATA,0.343
13,AGTTCAGA,0.0962
14,CGCTCACA,-0.125
15,AGGACCTG,-0.178
16,ATCAGCTA,-0.0431
17,CTAGCCCA,-0.248
18,CCATGAAG,-0.154
19,ATAGACGA,0.0286
20,AAGTGAAA,0.163
21,CTACAACA,0.244
22,ACTATTGC,0.202
23,GCGCACTA,0.048
24,GCGCGCCC,-0.28
25,GAGGGAAC,-0.291

row,Sequence,PBM 8-mer E-score
1,GAGGTAAA,0.0655
2,ACGGTATA,0.175
3,GGAGAGCC,-0.313
4,AACGTGTC,-0.117
5,TCAGGAGA,-0.0641
6,CCGTAACG,-0.103
7,GGAACAAC,4.61e-05
8,CCGCTCAC,-0.256
9,ATCCTGCC,-0.264
10,ACGTTGGG,-0.0365
11,GCTTACAC,-0.136
12,ACTTAAGA,0.225
13,CCGTCTGA,-0.0783
14,CCGTTTGA,0.0765
15,GTGCGGCA,-0.203
16,ACAATAGC,0.202
17,GGTTGTCA,-0.0626
18,AGGACCTC,-0.306
19,AAGACTCT,-0.0622
20,TGCATAAA,0.208
21,CCGACTTC,-0.0506
22,GCATTTGA,0.0521
23,AGTTCCGA,0.0562
24,ACTTCGTC,-0.167
25,ACGGGGTA,-0.0934

row,Sequence,PBM 8-mer E-score
1,CGCGGCAC,-0.152
2,AAAATTCC,0.141
3,CACGAAGC,-0.105
4,ACTTGCCT,0.0341
5,GTTTCCCA,0.0136
6,GATGCGAC,-0.266
7,ATGACAAC,0.056
8,GCTCAACA,-0.0453
9,AAGCGACT,-0.167
10,GAAACGTA,-0.0305
11,CCGAGGAC,-0.327
12,GAACAGCA,-0.137
13,ACAGTCGT,-0.175
14,GTGGCGAA,-0.0349
15,AACGTTGC,0.0306
16,AGCAGCGA,0.0043
17,ACGACATA,0.11
18,CTTAATCA,0.174
19,GTAAGGGA,0.000975
20,AAACGGGT,0.0831
21,GCAAACCC,0.0106
22,CGCGAGTC,-0.189
23,CGAGTGTA,0.0819
24,ACACGGAT,-0.0371
25,CCTATAGG,-0.183

row,Sequence,PBM 8-mer E-score
1,CACCGCCC,-0.0502
2,CTTGCTGA,-0.116
3,ACAATACT,0.223
4,AAGCTTCA,-0.0502
5,CTAGGACA,-0.162
6,TCACAACA,0.133
7,GAATTTAA,0.264
8,GTCGCCAA,-0.166
9,GATATTGA,0.228
10,TCGAGTCA,-0.118
11,TAGAAACA,0.219
12,CATCTGTA,-0.0337
13,AGTGGCTC,-0.177
14,AAGAACTA,0.208
15,AGGTACAG,-0.139
16,CACCAACA,0.0857
17,CTACGCAG,-0.282
18,CGTCTGGC,-0.15
19,ATACACAA,0.154
20,AAACGGGG,-0.0516
21,CCGGCAGC,-0.221
22,AGGCTCCG,-0.255
23,ATCGCAGC,-0.234
24,GCTGTAAA,0.0774
25,ATTCGACA,0.07

row,Sequence,PBM 8-mer E-score
1,AGGACGGC,-0.3
2,AGCCGCGG,-0.191
3,GCTAGGCA,-0.187
4,ACACCTTC,-0.0944
5,GGGGGAGA,-0.213
6,CCAGCTGA,-0.106
7,CATAAAAC,0.232
8,AGGAAGGA,-0.168
9,AACCCTTA,-0.0282
10,TACAGCAA,0.00971
11,CGGGTTCC,-0.15
12,AACTGAAC,0.104
13,CTACCACA,0.147
14,CATGGCGA,-0.15
15,ATGTTGGG,0.105
16,ATATGACA,0.211
17,CCGCCTGC,-0.18
18,CCACTCAA,0.0518
19,TGACGTAA,0.0689
20,AGGATTTG,-0.0256
21,CGCCTTGC,-0.254
22,ATTTAGGA,0.165
23,AAGAGTCC,-0.0986
24,CAGGCACC,-0.285
25,GCCTCTGA,-0.299

row,Sequence,PBM 8-mer E-score
1,ATAATGAA,0.323
2,AATAATTC,0.344
3,ATCCCTGC,-0.153
4,ACCCAGAA,0.0295
5,AAATTAGG,0.165
6,AGGACTAC,-0.159
7,CCGCTCTC,-0.31
8,ACATGCCA,-0.0617
9,CTCGTCAG,-0.173
10,ACGCGGAG,-0.247
11,CGGTCCCC,-0.373
12,GACCAGAC,-0.127
13,GGGCCGTA,-0.325
14,AGGAGATA,-0.0422
15,CGTCTTAG,-0.168
16,AACTCAGG,0.0528
17,CGCTGTAG,-0.198
18,ATAGCAGG,-0.0636
19,GCAATTAA,0.324
20,AAGGAGAG,-0.222
21,CTATACTA,0.156
22,AGACCAAA,0.0534
